This is an account of results in US20230404921A1, “LYOTROPIC LIQUID CRYSTALLINE PHASE PARTICLE” (priority 2020, published 2023).

Molecules are shown by their SMILES. In brackets after ≈: the same amount, converted by molar mass. Read-outs that look alike come from different tables or passages of the source.

This experiment concerns E. coli O157:H7. In words: CFU based cell viability / MIC determination assay. On the set-up: species or system Escherichia coli. Conditions: for MIC: Escherichia coli.

`CC1(C)S[C@@H]2[C@H](NC(=O)Cc3ccccc3)C(=O)N2[C@H]1C(=O)O` [BP, Benzyl penicillin]: the CFUs stood at 732.5 (conc 40 ug/ml); 587.5 (conc 50 ug/ml); 312.5 (conc 80 ug/ml); 340 (conc 110 ug/ml); 148.5 (conc 120 ug/ml); 3 (conc 130 ug/ml).

With `CC(=O)O[C@H]1C[C@@]2(C)[C@@H](C[C@@H](O)[C@H]3[C@@]4(C)CC[C@@H](O)[C@@H](C)[C@@H]4CC[C@@]32C)/C1=C(\CCC=C(C)C)C(=O)O` [Fusidic acid, Fusidic Acid], the MIC (read-out: minimum inhibitory concentration (MIC, 90% inhibition)) came out at 1500 µg/mL (≈ 2900 µM).

As to `CO[C@@H]1[C@@H](OC(N)=O)[C@@H](O)[C@H](Oc2ccc3c(O)c(NC(=O)c4ccc(O)c(CC=C(C)C)c4)c(=O)oc3c2C)OC1(C)C` [novobiocin, Novobiocin], the CFUs is listed as 812 (conc 5 ug/ml); 800 (conc 10 ug/ml); 476 (conc 20 ug/ml); 280 (conc 30 ug/ml); 137.5 (conc 40 ug/ml); 40 (conc 50 ug/ml).

Turning to `CO[C@H]1/C=C/O[C@@]2(C)Oc3c(C)c(O)c4c(O)c(c(/C=N/N5CCN(C)CC5)c(O)c4c3C2=O)NC(=O)/C(C)=C\C=C\[C@H](C)[C@H](O)[C@@H](C)[C@@H](O)[C@@H](C)[C@H](OC(C)=O)[C@@H]1C` [rifampicin, Rifampicin], the MIC (read-out: Minimum inhibitory concentration (90% death)) was in the range of 3 to 5 µg/mL (≈ 3.65 to 6.08 µM).
